Measured values taken from the supplement of paper PMC10441789.
The other results are listed elsewhere or left out. Antibody binding of pooled human sera (four to six donors per pool; dilution not stated) to peptides of the Trypanosoma cruzi antigen TSSA on microarrays. Quantile-normalised fluorescence in arbitrary units, mean of duplicate arrays; higher = more binding. No active / inactive call. The uninfected pools are read here as the healthy donors of the same country. The strongest signals lie near the top of the scale (about 60,000).

Tested on: pooled sera of uninfected people, Brazil
Assay: antibody binding signal (normalised fluorescence) (arbitrary fluorescence units); higher = stronger serum antibody binding to peptide
Description: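 Microarray of overlapping 15-residue peptides of the four Trypanosoma cruzi TSSA reference variants and 8- to 13-residue peptides of TSSAII 24-62, probed with one serum pool per country.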

| Sequence | antibody binding signal |
| --- | --- |
| QPGASSGEA | 185 |
| STSSTPPSGTEN | 286 |
| TGEAPSQPGAS | 180 |
| TPPSGTENKPATG | 878 |
| GGSTSSTPPGTDKKT | 112 |
| QPGASSGEAEAS | 107 |
| NGGSTSSTP | 171 |
| PSQPGASSG | 865 |
| PATGEAPSQP | 350 |
| TANGGSTSSTPPSGT | 293 |
| NGGSTSSTPPS | 210 |
| DKKTAAGGTPSPSGA | 1250 |
| TGEAPSQPGASSG | 257 |
| TPPSGTENKP | 463 |
| EAPSQPGASS | 162 |
| TANGGSTSSTPPS | 251 |
| PSGTDKKTAAGEAPS | 269 |
| GSTISTPPSGTEKKA | 267 |
| GGSTSSTPPSG | 550 |
| SACTTANGGSTISTP | 117 |

| Sequence | antibody binding signal |
| --- | --- |
| GGSTSSTPPSGTE | 135 |
| GSTSSTPPS | 218 |
| STPPSGTDKKTAAGE | 301 |
| LTACTTANGGSTSST | 342 |
| NGGSTSSTPPGTDKK | 124 |
| SGEAEASS | 83.1 |
| TTANGGSTISTPPSG | 220 |
| GTENKPATGEAPS | 374 |
| ANGGSTSSTPPS | 297 |
| GEAPSPSGASSGEAE | 89.9 |
| TSSTPPSGTENKPAT | 825 |
| TENKPATGE | 163 |
| TSSTPPSGTENKP | 649 |
| GGSTSSTPPSGTENK | 686 |
| GASSGEAE | 94.9 |
| SSTPPGTDKKTAAGG | 134 |
| ATGEAPSQPGASSGE | 213 |
| GSTISTPPSGTDKKT | 185 |
| GTENKPATG | 337 |
| NKPATGEAPS | 442 |
